The whole screen tested about 140,000 compounds, of which about 240 (0.17%) were called active. The shares of active, inactive and inconclusive entries below differ from those in the screen. The call rests on the fitted dose curve; in most records, active means well fitted inhibition curve with a large enough effect; inconclusive means small, poorly fitted or top-dose-only effect; inactive means no such curve, though single readings can be large or run the other way. Potencies beside an inconclusive call are fits to weak or partial responses and may not hold up.
Test: Primary qHTS assay for inhibitors of alpha-synuclein gene (SNCA) expression; further: nearly all actives have a fitted effect of over 45% in size;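 on activity change, negative = inhibition: plate controls were DMSO cells for no effect and cell-free wells for full effect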
Settings: HEK-293 SNCA-luciferase knock-in, luminescence, 24 h; activity change, negative = inhibition: at 57.2 µM (top of the series) unless noted
With `CCN(CC)C(=O)CCC1CCN(c2cc(NC3CC3)ncn2)CC1` the Potency was inconclusive: 15.8 µM [inhibitor, partial curve, poor fit].
For `COCCC(=O)N1CCNc2cnc(Nc3cccc(C(F)(F)F)c3)nc2C1`, the “activity change, negative = inhibition” value was inactive: 27.1% [at 87.6 µM].
In the case of `O=C(CCNc1c(-c2cccc(F)c2)nc2cnccn12)NCc1ccccc1`, the “activity change, negative = inhibition” value is reported as inactive: 23.2%.
In the case of `CCc1cccc(C)c1NC(=O)Cn1cccc1-c1nc(-c2ccc(OC)c(F)c2)no1`, the Potency is reported as inconclusive: 39.8 µM [inhibitor, single point].
For `Cc1cc(C)cc(-n2c(SCC(=O)Nc3ccc4c(c3)OCCO4)nc3c([nH]c4ccccc43)c2=O)c1`, the Potency was inconclusive: 1 µM [inhibitor, partial curve, poor fit].
With `CC(C)(C)c1ccc(C(=O)N2CCN(c3cc(C(F)(F)F)ncn3)CC2)cc1` the Potency was inconclusive: 22.4 µM [inhibitor, partial curve, poor fit].
With `COc1ccc(Oc2ncc3nc(-c4cccs4)c(=O)n(-c4ccccc4)c3n2)cc1` the “activity change, negative = inhibition” value was inactive: -1.07%.
In the case of `CC1=C(c2ccc(C)c(C)c2)S(=O)(=O)N=C1N1CCC(C(=O)NC(C)Cc2ccco2)CC1` (stereo not drawn), the Potency is reported as inconclusive: 5.62 µM [inhibitor, single point].
For `CC(C)c1ccc(CN2C[C@@H]3[C@H](C2)N(Cc2ccccc2)C(=O)C(C)(C)[S+]3(=O)[O-])cc1`, the Potency was inconclusive: 11.2 µM [inhibitor, partial curve, poor fit].
For `COCC1CN(C2CCC2)CC12CCN(C(=O)NCc1ccccc1)CC2` (stereo not drawn), the Potency was inconclusive: 2 µM [inhibitor, partial curve, poor fit].
For `COC1CCN(C(=O)C(C)(C)Oc2nn(CCOc3ccccc3)c3ccccc23)CC1`, the “activity change, negative = inhibition” value was inactive: -22.9% [at 87.6 µM].
In the case of `O=C1NCc2ccccc2CC12CCCN2Cc1ccccc1OC(F)(F)F` (stereo not drawn), the “activity change, negative = inhibition” value is reported as inactive: -23%.
With `COc1ccccc1NC(=O)Cn1c(=O)n(CCCCCC(=O)NCc2ccccc2)c(=O)c2sccc21` the “activity change, negative = inhibition” value was inactive: -13.7%.
For `O=C(NCC1CCOCC1)c1cnc2n[nH]c(-c3ccccc3)c2n1`, the Potency was inconclusive: 12.6 µM [inhibitor, partial curve, poor fit].
For `COc1ccc(F)cc1-c1cccc(C(=O)NCCNC(=O)Cc2ccc(F)cc2)c1`, the “activity change, negative = inhibition” value was inactive: 5.07%.
For `CCCNc1cc(N2CCC(CCC(=O)NCC)CC2)ncn1`, the Potency was active: 2.51 µM.
For `Cc1cccc(OCCc2noc(C3CCN(C(=O)c4cc(C)nn4C)C3)n2)c1` (stereo not drawn), the Potency was inconclusive: 39.8 µM [inhibitor, single point].
In the case of `CCOC(=O)c1cc(-c2ccc(F)cc2)n(CCC(=O)NCCc2ccc(C)cc2)c1C`, the Potency is reported as inconclusive: 20 µM [inhibitor, single point].
For `O=C(NCC(=O)N1CCN(Cc2ccccc2)CC1)c1cccc(-c2ccsc2)c1`, the Potency was inconclusive: 20 µM [inhibitor, partial curve, poor fit].
In the case of `CN(C(=O)c1cc2c(s1)-c1ccc(Cl)cc1SC2)c1cccc(C(F)(F)F)c1`, the Potency is reported as inconclusive: 3.16 µM [inhibitor, single point].
With `Cc1cncc(C(=O)N2CCOc3c(O)cc(-c4nc5ccccc5s4)cc3C2)c1` the “activity change, negative = inhibition” value was inactive: 20.8%.
With `O=C([C@H]1C[C@H](Oc2cccnc2)CN1C(=O)NC1CCCC1)N1CCOCC1` the Potency was inconclusive: 10 µM [inhibitor, partial curve, poor fit].
In the case of `N#Cc1cccc(NC(=O)CN2C(=O)NC(c3ccc(Cl)cc3)C3=C2COC3=O)c1` (stereo not drawn), the Potency is reported as inconclusive: 39.8 µM [inhibitor, single point].
In the case of `COc1cc(NC(=O)c2cc(C)nc3c2c(C)nn3-c2ccccc2Cl)cc(OC)c1`, the Potency is reported as inconclusive: 22.4 µM [inhibitor, single point].
With `COc1cc(CNC(=O)C2CCCCC(=O)N2)cc(OC)c1` (stereo not drawn) the Potency was inconclusive: 6.31 µM [inhibitor, single point].
With `CC1=C[C@@H](CNC(=O)C2CC2)[C@H](C(C)C)C[C@H]1Cc1nnc(-c2ccccc2F)o1` the Potency was inconclusive: 10 µM [inhibitor, partial curve, poor fit].
For `COCC(=O)N1CCCC(c2noc(COc3ccccc3)n2)C1` (stereo not drawn), the “activity change, negative = inhibition” value was inactive: 61.9%.
In the case of `O=C(c1ccsc1)N1CCN(c2cc(-c3ccc(Cl)cc3)[nH]n2)CC1`, the “activity change, negative = inhibition” value is reported as inactive: 6.15%.
With `CCn1cc(CN(C)C(=O)c2ccc3c(c2)C(O)CCCCCN3CCOC)c(C)n1` (stereo not drawn) the Potency was inconclusive: 3.55 µM [inhibitor, partial curve, poor fit].
In the case of `COc1ccccc1N1CCN(CCCCNS(=O)(=O)c2cccc3c(N(C)C)cccc23)CC1`, the Potency is reported as inconclusive: 15.8 µM [inhibitor, partial curve, poor fit].
In the case of `Cc1noc(-c2ccc3c(c2)OCO3)c1C(=O)NCCC(c1ccccc1)c1ccccc1`, the “activity change, negative = inhibition” value is reported as inactive: -8.36%.
In the case of `COc1ccc(NC(=O)CCc2nnc3n(CC(C)C)c(=O)c4ccccc4n23)cc1`, the Potency is reported as inconclusive: 6.31 µM [inhibitor, single point].
In the case of `Cc1cc(C)c(CNC(=O)c2nc(-c3cccc(F)c3)cc3c2ccn3C(C)C)c(=O)[nH]1`, the Potency is reported as inconclusive: 35.5 µM [inhibitor, single point].
With `COC(=O)c1ccc(NC(=O)Cn2nc3c(cc2=O)CN(C(C)=O)CC3)cc1` the Potency was inconclusive: 8.91 µM [inhibitor, single point].
For `O=C(c1cc(-c2cc(Cl)cc(Cl)c2)c2cccn2n1)N1CCN(Cc2ccccc2)CC1`, the “activity change, negative = inhibition” value was inactive: 6.86%.
In the case of `COc1ccc(CN2CC3(CCN(S(=O)(=O)c4ccc(F)cc4)CC3)C2=O)cc1`, the “activity change, negative = inhibition” value is reported as inactive: 1.19%.
For `Cc1ccc(C(=O)NCc2nnc3cc(-c4nc(C5CC5)no4)ccn23)cc1C`, the Potency was inconclusive: 39.8 µM [inhibitor, single point].
With `C=Cc1ccc(CSc2nc(-c3ccc(C)cc3)nc3c2Cc2c(CO)cnc(C)c2O3)cc1` the Potency was inconclusive: 25.1 µM [inhibitor, single point].
With `CC(C)c1ccc(OCC(=O)N(Cc2ccc(N(C)C)cc2)C2CCS(=O)(=O)C2)cc1` (stereo not drawn) the Potency was inconclusive: 8.91 µM [inhibitor, partial curve].
For `Cc1nn(-c2ccccn2)c(C)c1[C@@H]1C=C[C@@H](NC(=O)C2CCCCC2)C1`, the Potency was inconclusive: 7.94 µM [inhibitor, single point].
For `CN(C)C[C@@H]1CN(c2ncccn2)C[C@H]1NC(=O)c1c(F)cccc1F`, the “activity change, negative = inhibition” value was inactive: -16.8%.
With `O=C(C1CCCC1)N1CC2(CCCN2CC2CC2)Cc2ccccc21` (stereo not drawn) the Potency was inconclusive: 22.4 µM [inhibitor, single point].
For `CC(C)c1ccc(-c2nc(C3CC(=O)N(c4ccc(F)cc4)C3)no2)cc1` (stereo not drawn), the “activity change, negative = inhibition” value was inactive: 1.74%.
For `O=C1N(Cc2ccc(F)cc2)C[C@H]2CN(Cc3ccc(C(F)(F)F)cc3)CCN12`, the Potency was inconclusive: 15.8 µM [inhibitor, partial curve, poor fit].
With `CCc1ccccc1NC(=O)CCc1c(C)nn(-c2ccc(N3CCOCC3)nn2)c1C` the Potency was inconclusive: 7.08 µM [inhibitor, single point].
In the case of `COc1ccc(OCC(O)CN2CCC(=O)N(Cc3ccccc3)CCc3ccccc32)cc1` (stereo not drawn), the Potency is reported as inconclusive: 20 µM [inhibitor, single point].
For `CCn1cc(S(=O)(=O)N2CCC3(CC2)CN(C2CCC2)CC3COC)cn1` (stereo not drawn), the Potency was inconclusive: 3.55 µM [inhibitor, partial curve, poor fit].
For `COc1ccccc1-c1cc2nc(C)c(CCC(=O)NCc3cccc(Cl)c3)c(C)n2n1`, the Potency was inconclusive: 10 µM [inhibitor, partial curve, poor fit].
In the case of `O=C(CC1=C2CCCCC2N(Cc2ccccc2)C1=O)N1CCc2ccccc2C1` (stereo not drawn), the “activity change, negative = inhibition” value is reported as inactive: 6.24%.
For `COC1CCN(c2cc(-c3cccnc3)nc3c(C)noc23)CC1`, the “activity change, negative = inhibition” value was inactive: -28.7% [at 87.6 µM].
In the case of `CN1C(=O)CCC2(CNC(=O)c3ccoc3)CCC=C12` (stereo not drawn), the Potency is reported as inconclusive: 44.7 µM [inhibitor, partial curve, poor fit].
For `CCN(CC)S(=O)(=O)c1ccc2c(c1)c(=O)c(C(=O)N1CCN(c3cccc(C)c3)C(C)C1)cn2C` (stereo not drawn), the Potency was inconclusive: 12.6 µM [inhibitor, partial curve, poor fit].
With `O=C(c1ccccc1)N1CCC(N2C(=O)C(O)C23CCCCC3)CC1` (stereo not drawn) the “activity change, negative = inhibition” value was inactive: 2.89%.
For `NC(=O)c1ccc(NC(=O)c2cc3n(n2)CC(c2ccc(Br)cc2)OC3)cc1` (stereo not drawn), the “activity change, negative = inhibition” value was inactive: -8.25%.
With `CCOc1ccc(C(=O)Nc2cc(-c3nc4ccccc4s3)ccc2OC)cc1` the “activity change, negative = inhibition” value was inactive: 13.9%.
For `COC1CN(c2ccc(C)cc2)C12CCN(C(=O)COc1ccccc1)CC2` (stereo not drawn), the “activity change, negative = inhibition” value was inactive: 37.2%.
In the case of `COCc1nc(C2CC(N)C2)cc(N2CCN(S(=O)(=O)N(C)C)CC2)n1` (stereo not drawn), the Potency is reported as inconclusive: 15.8 µM [inhibitor, single point].
In the case of `CCOc1ccc(N(C)C(CNS(=O)(=O)c2ccccc2)c2ccccc2)cc1` (stereo not drawn), the Potency is reported as inconclusive: 31.6 µM [inhibitor, single point].
In the case of `O=C(Cc1c(F)cccc1Cl)N1CCCN(c2cc(-c3ccccc3)[nH]n2)CC1`, the Potency is reported as inconclusive: 7.08 µM [inhibitor, single point].
In the case of `COC(=O)[C@H](Cc1ccc(OC)cc1)NC(=O)[C@H]1CN(C(=O)c2ccc(N(C)C)cc2)CCN1S(=O)(=O)c1ccccc1`, the Potency is reported as inconclusive: 39.8 µM [inhibitor, partial curve, poor fit].
For `COc1ccccc1CNC(=O)C[C@@H]1CCNC[C@@H]1Cc1cc(-c2ccccc2)on1`, the “activity change, negative = inhibition” value was inactive: 1.23% [at 87.6 µM].
In the case of `O=C(NC[C@H]1O[C@@H](CO)[C@@H](O)[C@H]1N1CCN(c2ccc(F)cc2)CC1)c1ccccc1`, the Potency is reported as inconclusive: 1.26 µM [inhibitor, partial curve, poor fit].
In the case of `COc1ccc(CCNC(=O)c2ccc3c(c2)N(Cc2ccc(F)cc2)CCS3)cc1OC`, the Potency is reported as inconclusive: 17.8 µM [inhibitor, single point].

From PubChem BioAssay AID1671194 (National Center for Advancing Translational Sciences (NCATS), 2021)
Potency means the concentration at half of the fitted maximal effect; tags describe the fitted curve by direction and shape.
